Our source for the self-cleavage values is the RNAGym collection of RNA variant scans (doi:10.7554/elife.90254).

The source gives no read counts; variants with many changes may rest on few reads.

B1: LINE1-mini (parent)
chain: GGCAGAGCUCAACACAGCGUGGCAAAGUGGCUGUGGCUAGACUGCC

This data set covers variants of B1. Description: self-cleavage, relative activity (ratio to wild type); higher = more cleavage; in vitro, sequencing; the parent is a self-cleaving ribozyme.
Take GUCAGAGCUCAACACAGCGUGGCAAAUUGGCUGUUGGUAGACUGCC [G2U G27U G35U C37G]: the self-cleavage worked out at 0.02.
Turning to GUCAGAGCUCAACACAGCGUGGCAAAGUGGCUUUGGCAAGAGUGCC [G2U G33U U38A C42G], the self-cleavage was found to be 0.04.
On to GUCAGAGCUCAACACAGCGUGGCAAAGUGGCUAUGGCUAGACCGCC [G2U G33A U43C], for which the self-cleavage was determined as 0.01.
For GUCAGAGCUCAACACAGCGUGGCAAAGUGUCUGUGGCUAGAUUGCC [G2U G30U C42U], the self-cleavage came out at 0.56.
Turning to GUCAGAGCUCAACACAGCGUCGCAAUGUGGCUGUGGCUAGACUGCC [G2U G21C A26U], the self-cleavage came to 0.38.
Turning to GUCAGAGCUCAACACAGCUUGUCAAAGUGGUUGUGGCUAUUCUGUC [G2U G19U G22U C31U G40U A41U C45U], the self-cleavage came out at 0.01.
Regarding GUCAGAGCUCAACACAACGUGCCAAAGUGGCUGUGGCUAGACUGCC [G2U G17A G22C], the self-cleavage was determined as 0.06.
Regarding GUCAGAGCUCAACACAGCGUGGCAAAGUGUCUGUUGCUAGACUGUC [G2U G30U G35U C45U], the self-cleavage was 0.02.
For the variant GUCAGAGCUCAACACAGCGUGGCAAACUGGCUGUGGCUAUACUGCC [G2U G27C G40U], the self-cleavage was determined as 0.02.
In the case of GUCAGAGCUCAACACACUGUGGCAAAGUGGCUGUGGCUAGACUGCC [G2U G17C C18U], the self-cleavage came out at 0.
In the case of GUCAGAGCUCAACACAGCGUAGAAAAGUGGCUGUGGCUAGAUUGCC [G2U G21A C23A C42U] it was 0.06.
The result for GUCAGAGCUCAACACAGCGUGGCAAAGUGGCUUUGGCUAGACAGCC [G2U G33U U43A] reads 0; that for GUCAGAGCUCAACACAGCGUUGCAAAGUGGCUGUGGCAAGACUGCC [G2U G21U U38A], 0.08; that for GUCAGAGCUCAACACAGCGUGGCAAAGUGACUAUGGCUAGACUGCC [G2U G30A G33A], 0.1.
For GUCAGAGCUCAACACAGCGUGGCAAAGUGACUGUGGUUAGACUGCC [G2U G30A C37U], the self-cleavage is 0.01.
On to GUCAGAGCUCAACACAGCCUGGUAAAGUGGCUGUGGCUAGUCUGCC [G2U G19C C23U A41U], for which the self-cleavage was 0.03.
Turning to GUCAGAGCUCAACACAGCUUGGCCAAGUGGCUGUGGCUAGACUGCC [G2U G19U A24C], the self-cleavage was found to be 0.02.
As for GUCAGAUCUCAACAUAGCGUGGCACAGUGGCUGUGGCUAGACUUCC [G2U G7U C15U A25C G44U], the self-cleavage was determined as 0.1.
The result for GUCAGAGCUCAACACAGCGUGGCAAAGUGACUGUGGCCAGACUGGC [G2U G30A U38C C45G] reads 0.02.
Take GUCAGAGCUCAACACAGCUUGGCAAACUGGCUGUGGCUAGACUGCC [G2U G19U G27C]: the self-cleavage turned out to be 0.07.
On to GUCAGAGCUCAACACAGCGUGGCAAAUUGGCUGUGGCUAGACUCCC [G2U G27U G44C], for which the self-cleavage was found to be 0.05.
With GUCAGAGCUCAACACAGCGUGGCAAACUGGCUGUGUCUAGAAUGCC [G2U G27C G36U C42A], the self-cleavage is 0.02.
The result for GUCAGAGCUCAACACAGCGUGGCAAAGUCGCUGUGACUAGACUGCC [G2U G29C G36A] reads 0; that for GUCAGAGCUCAACACAGCGUGGCAAAUUGGCUGUGGUUAGUAUGCC [G2U G27U C37U A41U C42A], 0.06.
The result for GUCAGAGCUCAACACAGCGUGGCAAAGUGUCUGUGGCUAGACUUCC [G2U G30U G44U] reads 0.01; that for GUCAGAGCUCAACACAACGUGGGAAAGUGGCUGUGGCUAGACUGCC [G2U G17A C23G], 0.03; that for GUCAGAGCUCAACACAGCUAGGCAAAGUGGCUGAGGCUAUACUGCC [G2U G19U U20A U34A G40U], 0.06.
Regarding GUCAGAGCUCAACACAGCGUGGCAAAGUGCCUGUGGAUAGACUGCC [G2U G30C C37A], the self-cleavage was 0.21.
For GUCAGAGCUCAACACAGCGUGGCAAACUGGCUGUUGCUGGACUGCC [G2U G27C G35U A39G], the self-cleavage was 0.03.
GUCAGAGCUCAACACAUCGUGGCAAAGUGGAUGUGGCUGCACUGCC [G2U G17U C31A A39G G40C]: the self-cleavage is 0.02.
The result for GUCAGAGCUCAACACAGCAUGUCAAAGUGGCUGUGGCUAGACUGCC [G2U G19A G22U] reads 0.03; that for GUCAGAGCUCAACACAGCGUGACAAAGUGGCUGUGGCUAGACGGCC [G2U G22A U43G], 0; that for GUCAGAGCUCAACACAGCGUGGCAAAGUGACGUUGGCUAGACUGCC [G2U G30A U32G G33U], 0.02.
In the case of GUCAGAGCUCAACACAGCGUGGCAAAGUGGCUUUCGCUAGACUGCC [G2U G33U G35C] it was 0.02; in that of GUCAGAGCUCAACACAGCGUGGCAAAGUCACUGUGGCUAGACUACC [G2U G29C G30A G44A], 0.1; in that of GUCAGAGCUCAACACAGCGUGACAAAGUGGCUGUGGCUAGACUACC [G2U G22A G44A], 0.02.
The result for GUCAGAGCUCAACACAGCGUGGCAAAGUGGCUGUGCCUAGACUGUC [G2U G36C C45U] reads 0.17; that for GUCAGAGCUCAACACACCGUGGCAAAGUGGCUGUGCCUAGACUGCC [G2U G17C G36C], 0.04.
With GUCAGAGCUCAACACAGCGUGUCAAAGUGGCUGUGGCUAGACUGAC [G2U G22U C45A], the self-cleavage worked out at 0.24.
The result for GUCAGAGCUCAACACAGCGUCGCAAAUUGGCUGUGGCUAGACUGCC [G2U G21C G27U] reads 0.08; that for GUCAGAGCUCAACACAGCGUGGCAAAGUGGCUGUGUAUAGACUGCC [G2U G36U C37A], 0.
GUCAGAGCUCAACACAGCGUGGCAAAGUCGCUGUUGUUAGACUGCC [G2U G29C G35U C37U]: the self-cleavage was determined as 0.02.
As to GUCAGAGCACAACCCAGCGUGGCAAAGUGGCUGUGGCUAGACUUCC [G2U U9A A14C G44U], the self-cleavage stood at 0.05.
The result for GUCAGAGCUCAACACAGCGUGUCAAAGUGUUUGUGGCUAGACUGCC [G2U G22U G30U C31U] reads 0.02; that for GUCAGAGCUCAACACAGCGUUGCAAAGUGGCGGUGGCUAGACUGCC [G2U G21U U32G], 0.05; that for GUCAGAGCUCAACACAGCGUGGCAAAAUGGUUGUGACUAGUCUGCC [G2U G27A C31U G36A A41U], 0.01.
The result for GUCAGAGCUCAACACAGCGUCGCAAAUUGGGUGUGGCUAGACUGCC [G2U G21C G27U C31G] reads 0.02.
For GUCAGAGCUCAACACAGCGUGGCAAAUUGGCUGAGGCUAGACUGCC [G2U G27U U34A], the self-cleavage came out at 0.02.
On to GUCAGAGCUCAACACAGCAUGGCAAAGUGGUUGUGGCUACACUGCC [G2U G19A C31U G40C], for which the self-cleavage stood at 0.01.
Regarding GUCAGAGCUCAACACAGCCUGGCAAAGUGGCGGUGGCUAGACUGCC [G2U G19C U32G], the self-cleavage was 0.03.
GUCAGAGCUCAACACAGCUUGGCAAAGUGGCUGUGGCUCGGCUGCC [G2U G19U A39C A41G]: the self-cleavage came to 0.01.
In the case of GUCAGAGCUCAACACAGCGUGCCAAAGUGGCUGUGGCUACAAUGCC [G2U G22C G40C C42A] it was 0.02; in that of GUCAGAGCUCAACACAGCGUUGCAAAGUCGCUGUGGCUAGACUGCA [G2U G21U G29C C46A], 0.03; in that of GUCAGAGCUCAACACACCAUGGCAAAGUGGCUGUGGCUGGACUGCC [G2U G17C G19A A39G], 0.02.
For the variant GUCAGAGCUCAACACAGCGUGCCAAAGUAGGUGUGGCUAGACUGCC [G2U G22C G29A C31G], the self-cleavage was 0.04.
Consider GUCAGAGCUCAACACAUCGUGGCAAAGUUGCUGUGGCUAGAAUGCC [G2U G17U G29U C42A], for which the self-cleavage came out at 0.
